Screen size: about 140,000 compounds; about 240 (0.17%) were called active. The inconclusive results got no clear call from the source; some entries with a clear call stand among them for comparison. Calls come from the whole dose curve; as a rule, active = well fitted inhibition curve with a large enough effect; inconclusive = small, poorly fitted or top-dose-only effect; inactive = no such curve, though single readings can be large or run the other way. Where the call is inconclusive, the potency comes from a doubtful curve fit.
Assay: Primary qHTS assay for inhibitors of alpha-synuclein gene (SNCA) expression; note: nearly all actives have a fitted effect of over 45% in size
Details: HEK-293 SNCA-luciferase knock-in, luminescence, 24 h; series mostly up to 57.2 µM
Potency is the fitted concentration of half-maximal effect; tags give direction and shape of the fitted curve.

Structure (SMILES)	Potency
CC(=O)N1CCc2cc(S(=O)(=O)NCCCC(=O)N3CCC(CCOc4ccccc4)C3)ccc21 (centres undefined)	inconclusive: 6.31 µM [inhibitor, full curve, poor fit]
COc1ccccc1CN1CC(COc2ccccc2)C2(C1)CN(C(=O)c1cn[nH]c1)C2 (centres undefined)	inactive
O=C1NCCCCCCN(C(=O)c2ccoc2)[C@H]2CCCC[C@@H]12	inconclusive: 8.91 µM [inhibitor, partial curve, poor fit]
CCc1[nH]c2c(CNC(=O)CC3C(=O)NCCN3C(C)C)cc(C)cc2c1C (centres undefined)	inactive
CCOc1ccc(CCNC(=O)C2CCCN(c3nnc(C)c4c(C)n(-c5ccccc5)nc34)C2)cc1 (centres undefined)	inconclusive: 1.12 µM [inhibitor, full curve, poor fit]
CN(Cc1ccc(-c2ccccc2)cc1)Cc1ccc(N(C)C)cc1	inactive
COc1ccccc1N1CCN(C(=O)C2CCN(S(=O)(=O)c3cccc4nonc34)CC2)CC1	inconclusive: 2 µM [inhibitor, full curve]
O=C(Cc1c[nH]c2ncc(-c3cccnc3)cc12)Nc1ccc(C(F)(F)F)cc1	inconclusive: 56.2 µM [inhibitor, single point]
CC(C)C(=O)N1CCCC2(CNS(=O)(=O)c3cccnc3O2)C1 (centres undefined)	inconclusive: 11.2 µM [inhibitor, partial curve, poor fit]
C#CCNC(=O)c1nc(-c2cccnc2)c2cnccn12	inactive
O=C1c2cc(N3CCOCC3)nc(-c3ccccc3)c2CN1Cc1ccccc1	inconclusive: 6.31 µM [inhibitor, full curve]
Cc1cccc(C(=O)N2CCC3(CC2)N=C(c2cccc(Br)c2)NO3)c1	inactive
O=C(NC[C@H]1OC[C@@H](N(Cc2ccccc2F)Cc2ccccc2F)[C@@H]1O)c1ccccc1	inconclusive: 12.6 µM [inhibitor, partial curve, poor fit]
COC(=O)[C@@H]1Cc2ncn(Cc3ccc(Cl)cc3)c2CN1CCCc1ccccc1	inconclusive: 2.51 µM [inhibitor, full curve, poor fit]
COc1ccc2oc(=O)c(C(=O)NCCc3c(C)[nH]c4c(C)cccc34)cc2c1	inconclusive: 2 µM [inhibitor, single point]
CC(=O)Nc1ccc(-c2c(-c3cccc(C)c3)nn(-c3ccc(F)cc3)c2OC(C)=O)cc1	inactive
COc1ccc(CN2CCC3(CN[S+](=O)([O-])c4ccccc4N3)C2)cc1 (centres undefined)	inconclusive: 1.12 µM [inhibitor, full curve, poor fit]
CCOC(=O)C1(Cc2ccc(F)cc2)CCCNC1 (centres undefined)	inconclusive: 7.08 µM [inhibitor, single point]
COc1ccc(C(C)NC(=O)c2ccc(Cn3ccn4nc5c(c4c3=O)CCCC5)cc2)cc1OC (centres undefined)	inconclusive: 39.8 µM [inhibitor, single point]
CN1C[C@H](C(=O)Nc2ccccc2)C[C@H]1c1cccc(C(F)(F)F)c1	inconclusive: 56.2 µM [inhibitor, partial curve, poor fit]

Structure (SMILES)	Potency
CCc1ccccc1Nc1nn2c(=O)c3ccc(C(=O)NCCc4ccccc4)cc3nc2s1	inconclusive: 12.6 µM [inhibitor, partial curve, poor fit]
CC(C)[S+](=O)([O-])N1CC2(CN(Cc3ccc(Cl)cc3)C(=O)O2)C1	inconclusive: 12.6 µM [inhibitor, single point]
COc1ccc(N2CCN(CC(O)COc3ccccc3C(C)(C)C)CC2)cc1 (centres undefined)	inconclusive: 31.6 µM [inhibitor, single point]
CC1(C(=O)NC2CCOCC2)CCc2cnc(Nc3ccccc3)nc21 (centres undefined)	inconclusive: 44.7 µM [inhibitor, partial curve, poor fit]
CC(C)NC(=O)CC[C@@H]1CNC(=O)[C@@H]2C[C@H](NCc3ccccc3)CN12	inactive
O=C(Cn1nc2c(cc1=O)CCCCC2)Nc1ccc(Cl)cc1	inconclusive: 6.31 µM [inhibitor, single point]
COc1ccc(-c2nc(C)nc3c2CN(C(=O)c2ccccc2F)CC3)cc1	inconclusive: 1.41 µM [inhibitor, full curve, poor fit]
COCCC(=O)N1CCC2(CC1)CC(CCOc1ccncc1)CCO2 (centres undefined)	inconclusive: 12.6 µM [inhibitor, partial curve, poor fit]
COc1ccc2c(c1)c1c(c(=O)n(-c3ccccc3C)c(=O)n1Cc1ccccc1C)n2C	inconclusive: 7.08 µM [inhibitor, single point]
Cc1ccc(C)c(N2CCN(C(=O)c3cccc(-n4c(C)nc5cccnc54)c3)CC2)c1	inconclusive: 22.4 µM [inhibitor, partial curve, poor fit]
CNCC(=O)N1CCCC(c2cc(N3CCOCC3)nc(C)n2)C1 (centres undefined)	inactive
O=C1CO[C@H]2CN(C3CCC3)C[C@H]2N1Cc1ccc(F)cc1	inconclusive: 56.2 µM [inhibitor, single point]
COc1ccc(C(=O)N[C@@H]2CN(C(=O)Nc3ccc(OC(F)(F)F)cc3)CCC[C@H]2O)cc1	inactive
O=C(NCc1ccccc1)c1ccccc1OC1CN(Cc2ccc(F)cc2)C1	inconclusive: 39.8 µM [inhibitor, single point]
COCCNC(=O)Cc1c[nH]c2ncc(-c3cccnc3OC)cc12	inconclusive: 39.8 µM [inhibitor, single point]
Cc1ccc(C2CCN(C(=O)c3cnn(-c4ccccc4Cl)c3C3CCN(C(=O)OC(C)(C)C)CC3)C2)cc1 (centres undefined)	inconclusive: 14.1 µM [inhibitor, partial curve, poor fit]
CCCCN(CC)C(=O)Cn1c(=O)n(-c2ccc(OCC)cc2)c(=O)c2c3c(sc21)CCC3	inactive
COc1ccc(-c2nc(C3CC3)nc3c2CCN(C(=O)c2ccc(C(F)(F)F)cc2)CC3)cc1	inconclusive: 39.8 µM [inhibitor, single point]
Cc1ccc2[nH]cc(C(c3ccccc3)c3cccs3)c2c1 (centres undefined)	inconclusive: 10 µM [inhibitor, partial curve, poor fit]
